Data from PubChem BioAssay AID588855 (National Center for Advancing Translational Sciences (NCATS), 2011).
Out of some 410,000 compounds screened, about 5,000 (1.2%) were called active. The inconclusive results got no clear call from the source; some entries with a clear call stand among them for comparison. Calls come from the whole dose curve; as a rule, active = well fitted inhibition curve with a large enough effect; inconclusive = small, poorly fitted or top-dose-only effect; inactive = no such curve, though single readings can be large or run the other way. Where the call is inconclusive, the potency comes from a doubtful curve fit.

Experiment: qHTS for Inhibitors of TGF-b; note: nearly all actives have a fitted effect of over 65% in size
Details: HepG2 CAGA-GFP TGF-b/SMAD3 reporter, GFP fluorescence, 18 h, TGF-beta stimulated, 500 pg/mL final; series mostly up to 46.1 µM
Summary of the method: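 HEPG2 CAGA-GFP reporter cells (1000/well, DMEM with 1% FBS) received compounds, then recombinant TGF-beta at 500 pg/mL final for 18 hours at 37 degrees C. Per-cell GFP summed per well was normalised to unstimulated and stimulated DMSO controls before curve fitting.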
Potency is the fitted concentration of half-maximal effect; tags give direction and shape of the fitted curve.

Compound | Potency
O=C(NC(NC(=S)Nc1c(Cl)cccc1Cl)C(Cl)(Cl)Cl)OCc1ccccc1 (configuration not stated) | inconclusive: 35.5 µM [inhibitor, single point]
c1ccc2c(N3CCCCC3)nc(N3CCCC3)nc2c1 | inconclusive: 35.5 µM [inhibitor, single point]
Cn1[nH]c(CSc2ccc(Cl)cc2)cc1=O | inconclusive: 10 µM [inhibitor, partial curve, poor fit]
CC(=O)Oc1ccc(OC(C)=O)c(SCCCCCCl)c1 | inconclusive: 35.5 µM [inhibitor, single point]
CC(=O)c1ccc(NC(=O)CCNS(=O)(=O)c2ccccc2F)cc1 | inactive
O=S(=O)(Nc1ccc(N=Nc2ccc(O)c3ccccc23)cc1)c1ccccc1 | inconclusive: 35.5 µM [inhibitor, single point]
COc1ccc(NC(=S)c2ccncc2)cc1 | inactive
CCCCc1ccc(NC(=O)CSC2=NN3CCCC(=O)N=C3S2)cc1 | inconclusive: 8.91 µM [inhibitor, partial curve, poor fit]
O=S1(=O)CCC(NC(=S)SCc2ccccc2Br)C1 (configuration not stated) | inconclusive: 35.5 µM [inhibitor, single point]
COc1ccc(S(=O)(=O)N(C)C)cc1NCC(=O)Nc1ccc(Br)cc1F | inactive
COc1ccc(CNC(=O)CCS(=O)(=O)c2ccc3c(c2)oc(=O)n3C)cc1 | inactive
CCOc1cc(C2c3c(-c4ccc(Br)cc4)n[nH]c3C(=O)N2c2ccc(Cl)cc2)ccc1O (configuration not stated) | active: 4.47 µM
COc1ccccc1CNC(=O)CCN1C(=O)COc2ccc(C)cc21 | inactive
O=[N+]([O-])c1cc(C(F)(F)F)cc([N+](=O)[O-])c1NN=C1CCCCC1 | inconclusive: 35.5 µM [inhibitor, partial curve, poor fit]
Cc1ccc(N(Cc2cccs2)C(=O)c2ccc(Br)o2)cc1 | inconclusive: 35.5 µM [inhibitor, single point]
CC1CCN2c3ccccc3CC3(C(=O)OC(C)(C)OC3=O)C2C1 (configuration not stated) | inconclusive: 3.16 µM [inhibitor, single point]
Cc1cc(=O)n2nc(N3CCC(C(=O)Nc4ccc(C)c(Cl)c4)CC3)sc2n1 | inconclusive: 6.31 µM [inhibitor, full curve, poor fit]
CCSc1ncc(Cl)c(C(=O)Nc2nc3ccc(OC)cc3s2)n1 | inactive
Cc1ccc(S(=O)(=O)NCCC(=O)N2CCCCCCC2)cc1C | inconclusive: 0.708 µM [inhibitor, full curve, poor fit]
COc1ccc(C2/C=C\CN(C(=O)c3ccc(C)cc3)C(C)C(=O)N2Cc2ccc(F)cc2)cc1 (configuration not stated) | inconclusive: 35.5 µM [inhibitor, single point]
Cc1ccc(NS(=O)(=O)c2ccc(N3CCN(c4ccc(O)cc4)CC3)c([N+](=O)[O-])c2)c(C)c1 | active: 14.1 µM
Cc1cc(-n2c(SCC(=O)Nc3ccc(F)c(F)c3)nc3n[nH]c(C)c3c2=N)ccc1Cl | inconclusive: 3.55 µM [inhibitor, partial curve, poor fit]
Cn1nc(C(=O)NCc2ccc(Cl)cc2)c2c1-c1ccccc1SC2 | inconclusive: 11.2 µM [inhibitor, partial curve, poor fit]

Compound | Potency
CCCCc1nc2cc(C(=O)N3CCN(c4nc(C)cnc4C)CC3)ccc2o1 | inconclusive: 15.8 µM [inhibitor, single point]
CCN(CC)S(=O)(=O)c1ccc(N2CCOCC2)c(NC(=O)c2cc(Cl)c3c(c2)OCO3)c1 | inactive
Cc1cc(N2CCCCC2)nc2ccc(NC(=O)/C=C/c3ccccc3Cl)cc12 | inactive
C[C@H]1CN(S(=O)C(C)(C)C)[C@H](CCO)/C1=C\c1ccccc1 (some centres not stated) | inactive
CCOc1ccc(S(=O)(=O)N(CC(=O)NCCSc2ccccc2)c2ccccc2)cc1 | inconclusive: 7.08 µM [inhibitor, partial curve, poor fit]
COc1ccc(S(=O)(=O)Nc2cccc3c2O[C@H](CN(C)Cc2ccc(-c4ccccc4)cc2)[C@@H](C)CN([C@H](C)CO)C3=O)cc1 | inconclusive: 1.26 µM [inhibitor, full curve, poor fit]
O=C(Nc1ccc(C2CC2(Cl)Cl)cc1)c1ccccc1Br (configuration not stated) | inconclusive: 11.2 µM [inhibitor, single point]
O=C(Nc1nccs1)c1ccc(S(=O)(=O)N2CCCCC2)cc1 | inconclusive: 35.5 µM [inhibitor, single point]
CCOC(=O)C1=C(Cc2ccc(OC)cc2)C(=O)c2ccccc2C1=O | inconclusive: 0.447 µM [inhibitor, full curve, poor fit]
CCCn1c2ccccc2c2cnn(CC(=O)NCCc3ccccc3)c(=O)c21 | inconclusive: 14.1 µM [inhibitor, partial curve, poor fit]
CC(C)(C)OC(=O)CC[C@@H](C(=O)NCCCCCCCCCCC(=O)N1CCN(C(=O)OC(C)(C)C)CC1)n1cc(CCCCCNC(=O)OC(C)(C)C)nn1 | inactive
Cc1ccc2nc(-c3ccc(NS(=O)(=O)c4ccc(F)cc4)cc3)sc2c1 | inconclusive: 35.5 µM [inhibitor, single point]
CCn1cc(C(=O)OCC(=O)Nc2ccc(F)cc2F)c(=O)c2ccc(C)nc21 | inconclusive: 35.5 µM [inhibitor, single point]
Cn1nc(C(F)(F)F)c(-c2cccc(C(F)(F)F)c2)c1NC(=O)c1cccnc1 | inconclusive: 35.5 µM [inhibitor, single point]
O=C(CCc1nc(-c2cccs2)no1)NCc1ccc(F)cc1Cl | inconclusive: 5.62 µM [inhibitor, single point]
Cc1ccc(S(=O)(=O)N2CCN(C(=O)C(C)Cn3cncn3)CC2)cc1C (configuration not stated) | inconclusive: 35.5 µM [inhibitor, single point]
O=C(NC1CCCC1)c1cnn2c(C(F)(F)F)cc(-c3ccco3)nc12 | inconclusive: 15.8 µM [inhibitor, partial curve, poor fit]
CSc1nc(C)cc(C)c1C#N | inactive
COC(=O)[C@H](Cc1ccccc1)NC(=O)CC[C@H]1O[C@@H](n2ccc(=O)[nH]c2=O)[C@H](O)[C@@H]1O | inactive
CCOc1ccccc1CC1C(=O)Nc2ccc(Br)cc21 (configuration not stated) | inconclusive: 35.5 µM [inhibitor, single point]
Cc1ccc(C(C(=O)NC2CCCC2)N(C(=O)c2csnn2)C2CC2)cc1 (configuration not stated) | inconclusive: 35.5 µM [inhibitor, single point]
CC(=O)[C@@]1(O)CCC2C3CC[C@H]4C[C@@H](O)CC[C@]4(C)C3CC[C@@]21C (some centres not stated) | inactive
Cc1ccc(C)c(N2CCN(Cc3csc(C)c3C)CC2)c1 | inconclusive: 25.1 µM [inhibitor, single point]

Compound | Potency
COc1ccc(C2CC(c3ccc(C)cc3)=NN2C(=O)c2ccccc2)cc1 (configuration not stated) | inconclusive: 35.5 µM [inhibitor, single point]
Clc1ccc2oc(-c3ccccc3)cc(=NCCCN3CCOCC3)c2c1 | inconclusive: 35.5 µM [inhibitor, single point]
CCCCCCCCCS(=O)(=O)N/N=C/c1cccc([N+](=O)[O-])c1 | inconclusive: 28.2 µM [inhibitor, single point]
CCCCC(=O)Nc1ccc2nc(SCC(=O)N3CCCC3)sc2c1 | inactive
Cc1cc(C2=NNC(=NC3CC3)SC2)c(C)n1-c1ccccc1F | inconclusive: 35.5 µM [inhibitor, single point]
COc1ccc(CNC(=O)c2nn(-c3ccccc3C)nc2CO)cc1 | inactive
CCOc1cc(CNCCc2ccccc2)ccc1OCC(=O)NC(C)(C)C | inactive
CCc1nc2ccc(C(=O)Nc3cc(-c4ccccc4)ccc3OC)cn2c1N(C)CCC(C)C | inconclusive: 2.82 µM [inhibitor, partial curve, poor fit]
CC(=O)N1CCc2c(sc(NC(=O)C3CCCCC3)c2C(N)=O)C1 | inconclusive: 35.5 µM [inhibitor, single point]
O=C(Oc1ccc(=O)n(-c2ccccc2)n1)c1ccc(Cl)cc1 | inconclusive: 3.55 µM [inhibitor, full curve, poor fit]
CCCN(CCC)CCNC(=O)C1CCN(c2nc3ccc(CC)cc3s2)CC1 | inconclusive: 35.5 µM [inhibitor, single point]
O=C(CN1C(=O)c2cccnc2Oc2ccc(Cl)cc21)NC1CCCCC1 | inactive
COc1ccc(-n2nnc(-c3nc(-c4cccs4)no3)c2N)cc1 | inconclusive: 35.5 µM [inhibitor, single point]
Clc1cccc(OCCN2CCN(CCOc3cccc(Cl)c3)CC2)c1 | inconclusive: 25.1 µM [inhibitor, single point]
CC(C)(C)OC(=O)N1CCC(c2c(C(=O)N3CCOCC3)cnn2-c2cccc(F)c2)CC1 | inactive
COc1ccc(CNc2ncc(-c3ccc(F)cc3)n2C)cc1OC | inactive
COC(=O)c1ccccc1-n1cc2c(c1-c1cccc(C)c1)c(=O)n(C)c(=O)n2C | inconclusive: 7.94 µM [inhibitor, partial curve, poor fit]
CC(C)(C)c1nc(CN2CCOCC2)ccc1O | inactive
CN(CCc1ccccn1)C(=O)CC1C(=O)NCCN1Cc1ccccc1C(F)(F)F (configuration not stated) | inconclusive: 1 µM [inhibitor, partial curve, poor fit]
O=C(NCC1CCCO1)c1ccccc1OCc1ccc(F)cc1 (configuration not stated) | inactive
Cc1ccc(Nc2nc3nonc3[nH]c2=O)cc1Cl | inconclusive: 15.8 µM [inhibitor, single point]
